Data taken from the supplement of paper PMC10126150.
Sequences with one replicate were seen in a single cluster, so their values are uncertain.
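Note: ATP exposure 15 min at 22 °C before imaging.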

What follows are sequences tested on ATP (assay: switch fluorescence ratio, 500 uM ATP over buffer (Cy3 cluster intensity, sum of 5 cycles each) (fold (ratio)); higher = stronger signal-on switching upon ATP binding; sequences stand for … in TCGTCGGCAGCGTCAGATGTGTATAAGAGACAGTTTTTTTTTTTTTTTTTTTTTTTTT…TC). Settings: aptamer strand: ATP DNA aptamer (quencher-CACCTGGGGGAGTATTGCGGAGGAAGG + anchor), 100 nM annealed; ATP concentration: 500 uM; one replicate.
How it was run: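 The quencher-labelled ATP aptamer, at 100 nM, was annealed to Cy3-labelled switching-strand clusters on a modified Illumina MiSeq flow-cell. The clusters were imaged in selection buffer, then after 15 min with 500 uM ATP at 22 °C, and this buffer/ATP cycle ran five times with NaOH stripping and re-annealing between runs. Per-cluster fluorescence ratios, summed target-cycle over summed buffer-cycle Cy3 intensity, were averaged per switch-domain sequence. Clusters outside 100-1000 RFU were excluded.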
CGGACGTTCT was tested, and the switch fluorescence ratio was 0.893. Work on CCGTTCGTTG yielded a switch fluorescence ratio of 1.01. Sequence GGCATTCCTT has a switch fluorescence ratio of 1.01. In the case of AATGTCAAAG, the switch fluorescence ratio is reported as 0.957. Work on GCACTTTCGC yielded a switch fluorescence ratio of 0.974. Work on TTGGTATGCT yielded a switch fluorescence ratio of 0.981. Sequence TTGAAGCTAA has a switch fluorescence ratio of 4.93. Work on GGGCGGTGAA yielded a switch fluorescence ratio of 1.08. Work on CAACGCGGGA yielded a switch fluorescence ratio of 1.07. With TTTTGAAGCT the switch fluorescence ratio was 0.879. Sequence GACCGTCTAG has a switch fluorescence ratio of 1.01. With TCGTAGAAGA the switch fluorescence ratio was 0.979. CGAGTGTACG gave a switch fluorescence ratio of 1.07. Work on CGGACGGTGG yielded a switch fluorescence ratio of 1.01. With AACCAGTAGG the switch fluorescence ratio was 1.03. TGCGCGATCC showed a switch fluorescence ratio of 3.34. AGCGAAGTAA gave a switch fluorescence ratio of 1.11. CCTAGGAGCT was tested, and the switch fluorescence ratio was 1.07. With AGTGAGGCAG the switch fluorescence ratio was 0.984. GCTTCATAGG gave a switch fluorescence ratio of 0.96. Sequence ACAGTGCACA has a switch fluorescence ratio of 0.999. Work on TTGGCTAAAC yielded a switch fluorescence ratio of 1.38. TTATGGCGTA was tested, and the switch fluorescence ratio was 1.02. For TCCGGGGTAT, the switch fluorescence ratio was 1.06. TTGTCGCGAA showed a switch fluorescence ratio of 0.976. For CTGGGCAAAG, the switch fluorescence ratio was 1.13. TCCTGGTGGT showed a switch fluorescence ratio of 1.08. CGATGTCTGG showed a switch fluorescence ratio of 0.962. TCACGAGATC gave a switch fluorescence ratio of 0.995. TTTACTCTAG showed a switch fluorescence ratio of 1.13. In the case of GGGTCCGGCA, the switch fluorescence ratio is reported as 0.985. With GGGGCATCGG the switch fluorescence ratio was 1.02. Sequence AAGCTTGGCG has a switch fluorescence ratio of 0.911. Work on TTAGTGGGTG yielded a switch fluorescence ratio of 0.959. TCGGGATTCT gave a switch fluorescence ratio of 1.1. Sequence AGGCAATATA has a switch fluorescence ratio of 1.19. GGCGGTAAGT gave a switch fluorescence ratio of 0.961. CAGACCCTAA was tested, and the switch fluorescence ratio was 1.04. GGTCGTTGAG showed a switch fluorescence ratio of 0.994. In the case of GATCTCCTTC, the switch fluorescence ratio is reported as 1.03. With GTTGTGATCA the switch fluorescence ratio was 1.06. With TATATCCGAT the switch fluorescence ratio was 1. Sequence TGGCCAAGGT has a switch fluorescence ratio of 1.01. GCTGATGATT gave a switch fluorescence ratio of 0.977. AGGGTTCATT gave a switch fluorescence ratio of 0.997. GATGCAGTGC showed a switch fluorescence ratio of 2.81. With GAGGCCTGTG the switch fluorescence ratio was 1.02. With AATACGGGTA the switch fluorescence ratio was 1.27. Sequence TGACAGCTAG has a switch fluorescence ratio of 1.06. AAGTAATTCG was tested, and the switch fluorescence ratio was 0.948. With ATTACCCTGG the switch fluorescence ratio was 1.05. In the case of CTTGGCCTAC, the switch fluorescence ratio is reported as 1.33. ACACTGCACG showed a switch fluorescence ratio of 1.35. CTTCCTATGA gave a switch fluorescence ratio of 1.19. In the case of GTGACCGTAT, the switch fluorescence ratio is reported as 0.99. Work on CAGGACGGCA yielded a switch fluorescence ratio of 1.01. ACTAAAGCAT showed a switch fluorescence ratio of 1.01. In the case of TGCTAATTGG, the switch fluorescence ratio is reported as 1.01. For TTCTAGGCC, the switch fluorescence ratio was 0.951. GGTTGTTGTC was tested, and the switch fluorescence ratio was 1.03. GAATTCTAAC showed a switch fluorescence ratio of 1.04. AGGAGGAATC showed a switch fluorescence ratio of 1.04. AACGACGTTC gave a switch fluorescence ratio of 1.05. TTGTACGGTT showed a switch fluorescence ratio of 1.02. Sequence GTGAAAATCG has a switch fluorescence ratio of 1.02. Work on AGGGGACCT yielded a switch fluorescence ratio of 1.19. In the case of TCGTAATAAT, the switch fluorescence ratio is reported as 1.39. For CATTGCGATG, the switch fluorescence ratio was 0.988. TATGCCCAT was tested, and the switch fluorescence ratio was 0.981. In the case of GTTATGCCCA, the switch fluorescence ratio is reported as 1.01. TATGTATTTA gave a switch fluorescence ratio of 1. TATGAAAACA gave a switch fluorescence ratio of 0.993. In the case of AACGATTCAT, the switch fluorescence ratio is reported as 1.05. For CCGTTTAGCT, the switch fluorescence ratio was 1.09. Work on AACAGTAGGA yielded a switch fluorescence ratio of 1. AGTCCACACG gave a switch fluorescence ratio of 1.03. With TATGAGGTAG the switch fluorescence ratio was 0.988. Work on GCATGGCCCT yielded a switch fluorescence ratio of 1.06. In the case of CATTCAGGGC, the switch fluorescence ratio is reported as 1.01. Sequence GGAAATGGG has a switch fluorescence ratio of 0.96. Sequence GCGCAGGAAA has a switch fluorescence ratio of 1.24. Work on CATGTAATCA yielded a switch fluorescence ratio of 0.978. For AATAACGAGG, the switch fluorescence ratio was 1.03. AAGTGCGGAT showed a switch fluorescence ratio of 1.01. AGGAGAGCTG showed a switch fluorescence ratio of 0.988. With CGGTCTCCAA the switch fluorescence ratio was 0.985. Work on TAGTGTGTCA yielded a switch fluorescence ratio of 0.972. GTTCTCCAAT gave a switch fluorescence ratio of 1.01. For TAAGAGGGCG, the switch fluorescence ratio was 0.963. GCCCGTACTG was tested, and the switch fluorescence ratio was 0.974. ATAAATAGCA was tested, and the switch fluorescence ratio was 1.04. AATGGATGAA gave a switch fluorescence ratio of 1.02. TCCGAGAGCG showed a switch fluorescence ratio of 2.89. For AAAGCTTCGC, the switch fluorescence ratio was 0.935. Sequence ATGCACCTGA has a switch fluorescence ratio of 1.14. In the case of ACCTTTATTT, the switch fluorescence ratio is reported as 1.08. For GATGGATTGG, the switch fluorescence ratio was 0.971. In the case of AACACCTTT, the switch fluorescence ratio is reported as 0.997. GTGTTAGTGG showed a switch fluorescence ratio of 0.978. For GTAATAATGC, the switch fluorescence ratio was 1.09. ATCTGGGACG gave a switch fluorescence ratio of 1.12. Sequence CCCTCTGATA has a switch fluorescence ratio of 1.19. For GACGAACGGA, the switch fluorescence ratio was 1.28. Work on TAATGCCCTT yielded a switch fluorescence ratio of 0.971. In the case of AAGACGTTAA, the switch fluorescence ratio is reported as 1.06. ACTAGGATTA gave a switch fluorescence ratio of 1. CCAGTATCTT showed a switch fluorescence ratio of 0.974. In the case of GCCTCGTTGC, the switch fluorescence ratio is reported as 0.962. Sequence TTGGGATCG has a switch fluorescence ratio of 0.969. For GTGAGGACAG, the switch fluorescence ratio was 0.959. Sequence GAATGAAGAG has a switch fluorescence ratio of 1. With ATGCACTGTG the switch fluorescence ratio was 1. For CGTAGGTGGA, the switch fluorescence ratio was 0.999. Sequence CGCCCCTCAA has a switch fluorescence ratio of 1.23. Sequence GGTGCATGAG has a switch fluorescence ratio of 1.01. GAACCCCACT was tested, and the switch fluorescence ratio was 1.24. CCAGTACAAG gave a switch fluorescence ratio of 1.05. In the case of GCAATGTGGG, the switch fluorescence ratio is reported as 1.19. In the case of ATGACCATAT, the switch fluorescence ratio is reported as 1.01. CGATGTTTGA gave a switch fluorescence ratio of 1.03. CGGTAGTAAA was tested, and the switch fluorescence ratio was 1.03. GACAGATCTT was tested, and the switch fluorescence ratio was 0.992. GCCTGATGTA showed a switch fluorescence ratio of 1.01. ACAGCATTAT was tested, and the switch fluorescence ratio was 1.23. With AGGTGACGAC the switch fluorescence ratio was 0.959. With CAATGGTAAT the switch fluorescence ratio was 0.974. For CTCGGCGGCG, the switch fluorescence ratio was 1. AGCAGCATGC gave a switch fluorescence ratio of 1.04. For GGTTTGAGC, the switch fluorescence ratio was 0.986. With GAGGGCATAC the switch fluorescence ratio was 1.67. With TGGACTAAAT the switch fluorescence ratio was 1.01. ATACTAAAAT gave a switch fluorescence ratio of 1.04. For TCTACGACGG, the switch fluorescence ratio was 1.03. In the case of CAGATTTCAG, the switch fluorescence ratio is reported as 0.964. In the case of TATTGTCACG, the switch fluorescence ratio is reported as 1.08. In the case of TATTCTGTTT, the switch fluorescence ratio is reported as 0.944. With CCGTTAGCGT the switch fluorescence ratio was 1.65. GTCCTCGTAC gave a switch fluorescence ratio of 1.34. For AAACAATCTC, the switch fluorescence ratio was 1.05. TGGTTGGC was tested, and the switch fluorescence ratio was 1.05. AGTGGACGCG was tested, and the switch fluorescence ratio was 0.873. With ATAATTTCAG the switch fluorescence ratio was 0.96. AGATCGGTGT gave a switch fluorescence ratio of 1.03. TCGTTGTGAA was tested, and the switch fluorescence ratio was 1.04. Work on AAAGTTAGA yielded a switch fluorescence ratio of 1. In the case of TTTATCGGTT, the switch fluorescence ratio is reported as 0.987. Work on TTGCAAATCA yielded a switch fluorescence ratio of 1.05. Sequence TAGACCTTA has a switch fluorescence ratio of 1.06. TGCCTGATCA showed a switch fluorescence ratio of 0.965. Sequence CACATGTTTG has a switch fluorescence ratio of 0.979. GCCGGAACGT gave a switch fluorescence ratio of 0.989. Sequence GGTCGGAGGC has a switch fluorescence ratio of 0.93. With GAGGATCATA the switch fluorescence ratio was 0.972.
